# Measured values: the supplement of paper PMC8728848
# The other results are listed elsewhere or left out.
# B1: Epa12 (Candida glabrata) (protein)
# chain: MGSSHHHHHHSSGLVPRGSHMLEPDNSLQIFDSFLSNPSKYPLGCSPKITNPKKGLSMELYSYPYRKKGSHPCWDPAYLDPNFPRVGYKKNKLIARVDGVSGDINFNFHPKRQCTPIADYLPPNFNYNEPITTTNFTMLLYGYFKPKVTGLHTFDISADDLLFMNFGAGNAFDCCRRDSTADTFGNYVAWAIWGRRIVRNKLTVRLDKGIYYPLRLFFNNRDYYGQMRLTFKTEHGSERITDFSDYFFSVDDTSEGCPGLITYESECADVKSSTVLETDYITIQAEKE
# Legend:
# Assay in all cases: glycan array binding signal (z-score within array); higher = stronger binding
# Details in all cases: glycan notation: IUPAC condensed, linker removed
# [1] = target: Fuc(a1-2)[GalNAc(a1-3)]Gal(b1-3)GalNAc(a1-3)[Fuc(a1-2)]Gal(b1-4)GlcNAc
# In short: (§1)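 From the Consortium for Functional Glycomics database, 3228 arrays were curated, keeping only those whose protein sequence was available. Binding is given as a within-array Z-score averaged across arrays sharing a protein sequence and across linkers. Negative Z-scores can be read as non-binding.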
# [2] = target: Fuc(a1-2)[GalNAc(a1-3)]Gal(b1-3)GalNAc(b1-3)Gal(a1-4)Gal(b1-4)Glc
# In short: as §1
# [3] = target: Fuc(a1-2)[GalNAc(a1-3)]Gal(b1-3)GlcNAc
# In short: as §1
# [4] = target: Fuc(a1-2)[GalNAc(a1-3)]Gal(b1-3)GlcNAc(b1-2)Man(a1-3)[Fuc(a1-2)[GalNAc(a1-3)]Gal(b1-3)GlcNAc(b1-2)Man(a1-6)]Man(b1-4)GlcNAc(b1-4)GlcNAc
# In short: as §1
# [5] = target: Fuc(a1-2)[GalNAc(a1-3)]Gal(b1-3)GlcNAc(b1-2)Man(a1-3)[Fuc(a1-2)[GalNAc(a1-3)]Gal(b1-3)GlcNAc(b1-2)Man(a1-6)]Man(b1-4)GlcNAc(b1-4)[Fuc(a1-6)]GlcNAc
# In short: as §1
# [6] = target: Fuc(a1-2)[GalNAc(a1-3)]Gal(b1-3)GlcNAc(b1-3)GalNAc
# In short: as §1
# [7] = target: Fuc(a1-2)[GalNAc(a1-3)]Gal(b1-3)GlcNAc(b1-6)GalNAc
# In short: as §1
# [8] = target: Fuc(a1-2)[GalNAc(a1-3)]Gal(b1-4)Glc
# In short: as §1
# [9] = target: Fuc(a1-2)[GalNAc(a1-3)]Gal(b1-4)GlcNAc
# In short: as §1
# [10] = target: Fuc(a1-2)[GalNAc(a1-3)]Gal(b1-4)GlcNAc(b1-2)Man
# In short: as §1
# [11] = target: Fuc(a1-2)[GalNAc(a1-3)]Gal(b1-4)GlcNAc(b1-2)Man(a1-3)[Fuc(a1-2)[GalNAc(a1-3)]Gal(b1-4)GlcNAc(b1-2)Man(a1-6)]Man(b1-4)GlcNAc(b1-4)GlcNAc
# In short: as §1
# [12] = target: Fuc(a1-2)[GalNAc(a1-3)]Gal(b1-4)GlcNAc(b1-2)Man(a1-3)[Fuc(a1-2)[GalNAc(a1-3)]Gal(b1-4)GlcNAc(b1-2)Man(a1-6)]Man(b1-4)GlcNAc(b1-4)[Fuc(a1-6)]GlcNAc
# In short: as §1
# [13] = target: Fuc(a1-2)[GalNAc(a1-3)]Gal(b1-4)GlcNAc(b1-3)Gal(b1-4)GlcNAc
# In short: as §1
# [14] = target: Fuc(a1-2)[GalNAc(a1-3)]Gal(b1-4)GlcNAc(b1-3)Gal(b1-4)GlcNAc(b1-3)Gal(b1-4)GlcNAc
# In short: as §1
# [15] = target: Fuc(a1-2)[GalNAc(a1-3)]Gal(b1-4)GlcNAc(b1-3)GalNAc
# In short: as §1
# [16] = target: Fuc(a1-2)[GalNAc(a1-3)]Gal(b1-4)GlcNAc(b1-3)[Fuc(a1-2)[GalNAc(a1-3)]Gal(b1-4)GlcNAc(b1-6)]GalNAc
# In short: as §1
# [17] = target: Fuc(a1-2)[GalNAc(a1-3)]Gal(b1-4)GlcNAc(b1-6)GalNAc
# In short: as §1
# [18] = target: Fuc(a1-2)[GalNAc(a1-3)]Gal(b1-4)[Fuc(a1-3)]GlcNAc
# In short: as §1
# [19] = target: Fuc(a1-2)[GalNAc(a1-3)]Gal(b1-4)[Fuc(a1-3)]GlcNAc(b1-3)GalNAc
# In short: as §1
# [20] = target: Fuc(a1-2)[GalNAc(a1-4)]Gal(b1-4)GlcNAc
# In short: as §1
# [21] = target: Fuc(a1-2)[GalNAc(b1-3)]Gal
# In short: as §1
# [22] = target: Fuc(a1-3)GlcNAc
# In short: as §1
# [23] = target: Fuc(a1-3)[Gal(b1-4)]Glc6S
# In short: as §1
# [24] = target: Fuc(a1-3)[Gal(b1-4)]GlcNAc
# In short: as §1
# [25] = target: Fuc(a1-3)[Gal(b1-4)]GlcNAc(b1-2)Man
# In short: as §1
# [26] = target: Fuc(a1-3)[Gal(b1-4)]GlcNAc(b1-2)Man(a1-3)[Fuc(a1-3)[Gal(b1-4)]GlcNAc(b1-2)Man(a1-6)]Man(b1-4)GlcNAc(b1-4)GlcNAc
# In short: as §1
# [27] = target: Fuc(a1-3)[Gal(b1-4)]GlcNAc(b1-2)Man(a1-3)[Fuc(a1-3)[Gal(b1-4)]GlcNAc(b1-2)Man(a1-6)]Man(b1-4)GlcNAc(b1-4)[Fuc(a1-6)]GlcNAc
# In short: as §1
# [28] = target: Fuc(a1-3)[Gal(b1-4)]GlcNAc(b1-3)Gal(b1-3)[Fuc(a1-4)]GlcNAc
# In short: as §1
# [29] = target: Fuc(a1-3)[Gal(b1-4)]GlcNAc(b1-3)Gal(b1-4)[Fuc(a1-3)]GlcNAc
# In short: as §1
# [30] = target: Fuc(a1-3)[Gal(b1-4)]GlcNAc(b1-3)Gal(b1-4)[Fuc(a1-3)]GlcNAc(b1-3)Gal(b1-4)[Fuc(a1-3)]GlcNAc
# In short: as §1
# [31] = target: Fuc(a1-3)[Gal(b1-4)]GlcNAc(b1-3)GalNAc
# In short: as §1
# [32] = target: Fuc(a1-3)[Gal(b1-4)]GlcNAc(b1-4)Gal(b1-4)[Fuc(a1-3)]GlcNAc
# In short: as §1
# [33] = target: Fuc(a1-3)[Gal(b1-4)]GlcNAc(b1-4)Gal(b1-4)[Fuc(a1-3)]GlcNAc(b1-4)Gal(b1-4)[Fuc(a1-3)]GlcNAc
# In short: as §1
# [34] = target: Fuc(a1-3)[Gal(b1-4)]GlcNAc(b1-6)GalNAc
# In short: as §1
# [35] = target: Fuc(a1-3)[Gal(b1-4)]GlcNAc(b1-6)[Gal(b1-3)GlcNAc(b1-3)]Gal(b1-4)Glc
# In short: as §1
# [36] = target: Fuc(a1-3)[Gal(b1-4)]GlcNAc6S
# In short: as §1
# [37] = target: Fuc(a1-3)[Gal3S(b1-4)]Glc
# In short: as §1
binder,measurement,setting,value
B1,glycan array binding signal (z-score),[1],-0.325
same,glycan array binding signal (z-score),[2],-0.336
same,glycan array binding signal (z-score),[3],-0.285
same,glycan array binding signal (z-score),[4],-0.323
same,glycan array binding signal (z-score),[5],-0.264
same,glycan array binding signal (z-score),[6],-0.345
same,glycan array binding signal (z-score),[7],-0.381
same,glycan array binding signal (z-score),[8],-0.281
same,glycan array binding signal (z-score),[9],-0.321
same,glycan array binding signal (z-score),[10],-0.324
same,glycan array binding signal (z-score),[11],-0.235
same,glycan array binding signal (z-score),[12],-0.115
same,glycan array binding signal (z-score),[13],-0.402
same,glycan array binding signal (z-score),[14],-0.266
same,glycan array binding signal (z-score),[15],-0.387
same,glycan array binding signal (z-score),[16],-0.028
same,glycan array binding signal (z-score),[17],-0.311
same,glycan array binding signal (z-score),[18],-0.268
same,glycan array binding signal (z-score),[19],-0.353
same,glycan array binding signal (z-score),[20],-0.296
same,glycan array binding signal (z-score),[21],-0.277
same,glycan array binding signal (z-score),[22],-0.335
same,glycan array binding signal (z-score),[23],0.203
same,glycan array binding signal (z-score),[24],-0.333
same,glycan array binding signal (z-score),[25],-0.289
same,glycan array binding signal (z-score),[26],-0.383
same,glycan array binding signal (z-score),[27],-0.174
same,glycan array binding signal (z-score),[28],-0.32
same,glycan array binding signal (z-score),[29],-0.3
same,glycan array binding signal (z-score),[30],-0.305
same,glycan array binding signal (z-score),[31],-0.27
same,glycan array binding signal (z-score),[32],-0.255
same,glycan array binding signal (z-score),[33],0.964
same,glycan array binding signal (z-score),[34],-0.306
same,glycan array binding signal (z-score),[35],-0.018
same,glycan array binding signal (z-score),[36],0.364
same,glycan array binding signal (z-score),[37],-0.279
